# Data from the supplement of paper PMC8728848.
# The other results are listed elsewhere or left out.
# B1: InvD YPIII (Yersinia pseudotuberculosis), B1JSC0 (protein)
# chain: MIKYFSFFKKPEPIVGILPNRQSHHILPTHIRRVAWGTLLLQLFIPLSVSFSPAIAAMKASKADTMVSYSSTEPYVLGSGETVAMVAKKYGITVDELKKINIYRTFSRPFTALTTGDEIDIPRKASPFSVDNNKDNRLSVENTLAGHAVAGATALSNGDVAKSGERMVRSAASNEFNNSAQQWLSQFGTARVQLNINDDFHLDGSAADVLIPLYDNEKSILFTQLGARNKDSRNTVNMGAGVRTFQGNWMYGANTFFDNDLTGKNRRIGVGAEAWTDYLKLSANNYFGITDWHQSRDFIDYNERPANGYDLRAEAYLPSYPQLGGKAMYEKYRGDDVALFGKDNRQKNPHAITAGVNYTPIPLVTIGAEHRAGKGGQNDSNINFQLNYRLGETWQSHIDPSAVAASRTLAGSRYDLVERNNHIVLDYQKQNLVRLSLPDSLAGDPFSQLSVTAQVTATHGLERIDWQSAELMAAGGVLKQTSKNGLEITLPEYQMNRTGGNSYILNAIAYDTQGNASSQASMLITVNAQKINIANSTLVAVPINIEANNSDTSVVTLTLKDDNNIPVTGQDVTFLSPLGTLSAMTDSGNGVYTATLTAGTVSGTTAVSSNINGSALDMTPATVTLNGNSGELSITHSMLVAAPVNIEANGSDTSVVTLTLRDSNNNPVTGQTVTFAGTLGTLGAVTEGSSGVYTATLTAGIMVGTSSITASVNSTALGVTPATVTLNGDSGNLSTTNSTLVAAPVNIEANSSDTSVVTLTLRDNNNNPVTGQTVVFTSTLGTLGNVTEQASGVYTATLTAGTVSGVASLSVSVGGNALGVTPATVTLNGDSGNLSTTNSTLVAAPVNIEANSSDTSVVTLTLRDNNNNPVTGQTVNFAGTLGTLGTVSEGSSGVYTTTLTAGTVAGVASLSVNVGGNALGVTPATVTLNGNSGNLSATNSTLVAAPVNIEANSSDTSVVTLTLRDNNNNPVTGQTVAFTSTLGTLGNVTEQASGVYTATLTAGTVSGVASLSVSVNSNALGVTPATVTLNGDSGNLSTTNSTLVAAPVNIEANSSDTSVVTLTLRDNNNNPVTGQTVAFTSTLGTLGNVTEQASGLYTATLTAGTVSGVASLSVNVGGNALGVTPATVTLNGDSGNLSATNSTLVAAPVNIEANSSDTSVVTLTLRDNNNNPVTGQTVAFTSTLGTLGNVTEQASGLYTATLTAGTVSGVASLSVNVGGTALGVTPATVTLNGDSGNLSTTNSTLVAAPVNIEANSSDTSVVTLTLRDNNNNPVTGQTVAFTSTLGTLGNVTEQASGLYTATLTAGTVSGVASLSVSVNSTALGVTPATVTLNGDSGNLSTTNSTLVAAPVNIEANSSDTSVVTLTLRDNNNNPVTGQTVAFTSTLGTLGNVTEQASGVYTATLTAGTVAGVASLSVNVGGNALGVTPATVTLNGDSGNLSTTNSTLVAAPVNIEANSSDTSVVTLTLRDNNNNPVTGQTVAFTSTLGTLGNVTEQASGVYTATLTAGTVSGVASLSVSVGSSALGVTPATVTLNGDSGNLSTTNSTLVAAPVNIEANNSDTSVVTLTLRDNNNNPVTGQTVAFTSTLGTLGNVTEQASGVYTATLTAGTVSGVASLSVSVNSNALGVTPATVTLNGDSGNLSTTNSTLVAAPVNIEANSSDTSVVTLTLRDNNNNPVTGQTVVFTSTLGTLGNVTEQASGLYTATLTAGTVSGVASLSVSVGGNALGVTGNITLAPGALDAARSILAVNKPSINADDRIGSTITFTAQDAQGNAITGLDIAFMTDLENSQIMTLVDHNDGTYTANINGTQTGIANIAVQSSGATIAGLAATMVTITPGAWNTTQATPVMTVALPITTCQSSSGVYKRYYIGIVTHELYDNYGNEISGILTYNLGAGRYTTVTSQNSSVSGSNGLTRRSNSPVSHFILTSDAYTSQAACYAERIANVNVTITVTAITDDFKTSAVNKVFILGTGSN
# Legend:
# Experiment in all cases: glycan array binding signal (z-score within array); higher = stronger binding
# Details in all cases: glycan notation: IUPAC condensed, linker removed
# [1] = molecular target: Fuc(a1-2)[GalNAc(a1-3)]Gal(b1-4)GlcNAc(b1-3)Gal(b1-4)GlcNAc
# In short: (§1)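 The binding signal is a Z-score computed within each array. Data were drawn from 3228 arrays in the Consortium for Functional Glycomics database, restricted to those with a known protein sequence. Scores were averaged over arrays of the same protein sequence at different concentrations or buffers, and over linkers, and negative values can be taken as non-binding.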
# [2] = molecular target: Fuc(a1-2)[GalNAc(a1-3)]Gal(b1-4)GlcNAc(b1-3)Gal(b1-4)GlcNAc(b1-3)Gal(b1-4)GlcNAc
# In short: as §1
# [3] = molecular target: Fuc(a1-2)[GalNAc(a1-3)]Gal(b1-4)GlcNAc(b1-3)GalNAc
# In short: as §1
# [4] = molecular target: Fuc(a1-2)[GalNAc(a1-3)]Gal(b1-4)GlcNAc(b1-3)[Fuc(a1-2)[GalNAc(a1-3)]Gal(b1-4)GlcNAc(b1-6)]GalNAc
# In short: as §1
# [5] = molecular target: Fuc(a1-2)[GalNAc(a1-3)]Gal(b1-4)GlcNAc(b1-6)GalNAc
# In short: as §1
# [6] = molecular target: Fuc(a1-2)[GalNAc(a1-3)]Gal(b1-4)[Fuc(a1-3)]GlcNAc
# In short: as §1
# [7] = molecular target: Fuc(a1-2)[GalNAc(a1-3)]Gal(b1-4)[Fuc(a1-3)]GlcNAc(b1-3)GalNAc
# In short: as §1
# [8] = molecular target: Fuc(a1-2)[GalNAc(a1-4)]Gal(b1-4)GlcNAc
# In short: as §1
# [9] = molecular target: Fuc(a1-2)[GalNAc(b1-3)]Gal
# In short: as §1
# Fuc(a1-3)GlcNAc = molecular target: Fuc(a1-3)GlcNAc
# In short: as §1
# [10] = molecular target: Fuc(a1-3)[Gal(b1-4)]Glc6S
# In short: as §1
# [11] = molecular target: Fuc(a1-3)[Gal(b1-4)]GlcNAc
# In short: as §1
# [12] = molecular target: Fuc(a1-3)[Gal(b1-4)]GlcNAc(b1-2)Man
# In short: as §1
# [13] = molecular target: Fuc(a1-3)[Gal(b1-4)]GlcNAc(b1-2)Man(a1-3)[Fuc(a1-3)[Gal(b1-4)]GlcNAc(b1-2)Man(a1-6)]Man(b1-4)GlcNAc(b1-4)GlcNAc
# In short: as §1
# [14] = molecular target: Fuc(a1-3)[Gal(b1-4)]GlcNAc(b1-2)Man(a1-3)[Fuc(a1-3)[Gal(b1-4)]GlcNAc(b1-2)Man(a1-6)]Man(b1-4)GlcNAc(b1-4)[Fuc(a1-6)]GlcNAc
# In short: as §1
# [15] = molecular target: Fuc(a1-3)[Gal(b1-4)]GlcNAc(b1-3)Gal(b1-3)[Fuc(a1-4)]GlcNAc
# In short: as §1
# [16] = molecular target: Fuc(a1-3)[Gal(b1-4)]GlcNAc(b1-3)Gal(b1-4)[Fuc(a1-3)]GlcNAc
# In short: as §1
# [17] = molecular target: Fuc(a1-3)[Gal(b1-4)]GlcNAc(b1-3)Gal(b1-4)[Fuc(a1-3)]GlcNAc(b1-3)Gal(b1-4)[Fuc(a1-3)]GlcNAc
# In short: as §1
# [18] = molecular target: Fuc(a1-3)[Gal(b1-4)]GlcNAc(b1-3)GalNAc
# In short: as §1
# [19] = molecular target: Fuc(a1-3)[Gal(b1-4)]GlcNAc(b1-6)GalNAc
# In short: as §1
# [20] = molecular target: Fuc(a1-3)[Gal(b1-4)]GlcNAc(b1-6)[Gal(b1-3)GlcNAc(b1-3)]Gal(b1-4)Glc
# In short: as §1
# [21] = molecular target: Fuc(a1-3)[Gal(b1-4)]GlcNAc6S
# In short: as §1
# [22] = molecular target: Fuc(a1-3)[Gal3S(b1-4)]Glc
# In short: as §1
binder,measurement,setting,value
B1,glycan array binding signal (z-score),[1],-0.044
same,glycan array binding signal (z-score),[2],0.761
same,glycan array binding signal (z-score),[3],-0.306
same,glycan array binding signal (z-score),[4],0.346
same,glycan array binding signal (z-score),[5],0.038
same,glycan array binding signal (z-score),[6],0.547
same,glycan array binding signal (z-score),[7],0.119
same,glycan array binding signal (z-score),[8],-0.158
same,glycan array binding signal (z-score),[9],0.063
same,glycan array binding signal (z-score),Fuc(a1-3)GlcNAc,-0.128
same,glycan array binding signal (z-score),[10],-0.08
same,glycan array binding signal (z-score),[11],-0.072
same,glycan array binding signal (z-score),[12],-0.112
same,glycan array binding signal (z-score),[13],-0.169
same,glycan array binding signal (z-score),[14],-0.147
same,glycan array binding signal (z-score),[15],-0.274
same,glycan array binding signal (z-score),[16],0.096
same,glycan array binding signal (z-score),[17],0.449
same,glycan array binding signal (z-score),[18],-0.024
same,glycan array binding signal (z-score),[19],-0.132
same,glycan array binding signal (z-score),[20],-0.224
same,glycan array binding signal (z-score),[21],-0.197
same,glycan array binding signal (z-score),[22],-0.259
